Experimental data reported in the supplement of paper PMC4967469.
IC50 is the fitted dose that halves viability relative to control wells, and lower means more sensitive; where the fit passes the top or lowest dose, that dose stands as a limit. The AUC spans the tested range (256-fold, ending at the top dose) of the same fit; values near 1 show little effect. For part of these data: Where the top dose is marked as inferred, it was derived from the fitted curves, not read from the paper. For part of these data: An entry number marks a drug with two screens in the source, which often give different values.

Assays:
Assay in all cases: Viability of human cancer cell lines after 72 h of drug (GDSC screen)
[1] = compound: CC(O)(CS(=O)(=O)c1ccc(F)cc1)C(=O)Nc1ccc(C#N)c(C(F)(F)F)c1 [Bicalutamide]; settings: top dose inferred
Experimental: (§1)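 Human cancer cell lines in 384-well plates, medium with 10% serum, drug for 72 h over a 256-fold dose range (nine 2-fold or five 4-fold steps up to the top dose). Adherent lines were fixed and stained with the nucleic acid dye Syto60, suspension lines read with resazurin; signal relative to control wells, capped at 0 and 100%. One two-parameter sigmoid per drug and line, fitted in a mixed model over all curves with the slope shared within a line.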

[2] = compound: CC(C)c1ccccc1Cc1cc(C(=O)Nc2ccc(S(=O)(=O)c3ccccc3C(C)(C)C)cc2)c(O)c(O)c1O [TW-37]; settings: top dose 5 µM
Experimental: as §1

[3] = compound: Cc1cn(-c2cc(NC(=O)c3ccc(C)c(Nc4nccc(-c5cccnc5)n4)c3)cc(C(F)(F)F)c2)cn1 [Nilotinib]; settings: top dose 2 µM
Experimental: as §1

[4] = compound: C/C(O)=C(\C#N)C(=O)Nc1cc(Br)ccc1Br [LFM-A13]; settings: top dose 16 µM; top dose inferred
Experimental: as §1

[5] = compound: O=S(=O)(c1ccccc1)N(CC(F)(F)F)c1ccc(C(O)(C(F)(F)F)C(F)(F)F)cc1 [T0901317]; settings: top dose 10.24 µM; top dose inferred
Experimental: as §1

[6] = compound: CCNC(=O)c1noc(-c2cc(C(C)C)c(O)cc2O)c1-c1ccc(CN2CCOCC2)cc1 [AUY922]; settings: top dose 0.256 µM; top dose inferred
Experimental: as §1

[7] = compound: Nc1ccn([C@@H]2O[C@H](CO)[C@@H](O)C2(F)F)c(=O)n1 [Gemcitabine]; settings: top dose 1.024 µM
Experimental: as §1

[8] = compound: S=C(NCc1ccc2c(c1)OCO2)N1CCN(c2ncnc3c2oc2ccccc23)CC1 [MP470]; settings: top dose 20 µM; top dose inferred
Experimental: as §1

[9] = compound: Cc1ccc(Nc2cc(-c3cccc(N4C(=O)c5ccccc5C4=O)c3)ncn2)cc1NS(C)(=O)=O [KIN001-270]; settings: top dose 20 µM; top dose inferred
Experimental: as §1

[10] = top dose 10 µM, screen: GDSC drug entry 1502
[11] = top dose 1.024 µM, screen: GDSC drug entry 150

## BALL-1 (B-cell leukaemia, suspension)
[1]; [10]
  AUC: 0.987
  IC50: > 10000 nM
[2]
  AUC: 0.511
  IC50: 332 nM
[3]
  AUC: 0.996
  IC50: > 2000 nM

## CL-34 (large intestine, adherent)
[1]; [10]
  AUC: 0.985
  IC50: > 10000 nM
[2]
  AUC: 0.975
  IC50: > 5000 nM
[3]
  AUC: 0.978
  IC50: > 2000 nM

## CL-40 (large intestine, adherent)
[1]; [10]
  AUC: 0.96
  IC50: > 10000 nM
[2]
  AUC: 0.803
  IC50: 4920 nM
[3]
  AUC: 0.955
  IC50: > 2000 nM

## CML-T1 (chronic myeloid leukaemia, suspension)
[1]; [10]
  AUC: 0.966
  IC50: > 10000 nM
[2]
  AUC: 0.481
  IC50: 279 nM
[3]
  AUC: 0.068
  IC50: < 7.81 nM

## CRO-AP2 (B-cell lymphoma, suspension)
[1]; [10]
  AUC: 0.982
  IC50: > 10000 nM
[2]
  AUC: 0.538
  IC50: 390 nM
[3]
  AUC: 0.927
  IC50: > 2000 nM

## DIFI (large intestine, adherent)
[1]; [10]
  AUC: 0.986
  IC50: > 10000 nM
[2]
  AUC: 0.866
  IC50: 4770 nM
[3]
  AUC: 0.987
  IC50: > 2000 nM

## EW-22 (Ewing sarcoma, adherent)
[1]; [10]
  AUC: 0.978
  IC50: > 10000 nM
[2]
  AUC: 0.502
  IC50: 316 nM
[3]
  AUC: 0.987
  IC50: > 2000 nM

## IGROV-1 (ovary, adherent)
[1]; [10]
  AUC: 0.947
  IC50: > 10000 nM
[2]
  AUC: 0.595
  IC50: 641 nM
[3]
  AUC: 0.976
  IC50: > 2000 nM

## JEKO-1 (B-cell lymphoma, suspension)
[1]; [10]
  AUC: 0.984
  IC50: > 10000 nM
[2]
  AUC: 0.416
  IC50: 186 nM
[3]
  AUC: 0.928
  IC50: > 2000 nM

## JHOS-4 (ovary, adherent)
[1]; [10]
  AUC: 0.935
  IC50: > 10000 nM
[2]
  AUC: 0.523
  IC50: 371 nM
[3]
  AUC: 0.979
  IC50: > 2000 nM

## Jurkat (T-cell leukaemia, suspension)
[1]; [10]
  AUC: 0.985
  IC50: > 10000 nM
[2]
  AUC: 0.632
  IC50: 672 nM
[3]
  AUC: 0.992
  IC50: > 2000 nM

## KARPAS-1106P (B-cell lymphoma, suspension)
[1]; [10]
  AUC: 0.992
  IC50: > 10000 nM
[2]
  AUC: 0.511
  IC50: 333 nM
[3]
  AUC: 0.951
  IC50: > 2000 nM

## KATOIII (stomach, semi-adherent)
[2]
  AUC: 0.83
  IC50: 2780 nM
[3]
  AUC: 0.977
  IC50: > 2000 nM

## KNS-62 (lung squamous cell carcinoma, adherent)
[1]; [10]
  AUC: 0.943
  IC50: > 10000 nM
[2]
  AUC: 0.601
  IC50: 670 nM
[3]
  AUC: 0.961
  IC50: > 2000 nM

## MHH-CALL-2 (B-cell leukaemia, suspension)
[1]; [10]
  AUC: 0.99
  IC50: > 10000 nM
[2]
  AUC: 0.619
  IC50: 609 nM
[3]
  AUC: 0.997
  IC50: > 2000 nM

## MM1S (myeloma, suspension)
[2]
  AUC: 0.609
  IC50: 614 nM
[3]
  AUC: 0.959
  IC50: > 2000 nM

## NCI-H1105 (small cell lung carcinoma, suspension)
[1]; [10]
  AUC: 0.993
  IC50: > 10000 nM
[3]
  AUC: 0.993
  IC50: > 2000 nM

## OCI-LY7 (B-cell lymphoma, suspension)
[2]
  AUC: 0.34
  IC50: 128 nM
[3]
  AUC: 0.886
  IC50: 1150 nM

## SK-CO-1 (large intestine, adherent)
[1]; [11]
  AUC: 0.978
  IC50: > 1020 nM
[1]; [10]
  AUC: 0.977
  IC50: > 10000 nM
[4]
  AUC: 0.964
  IC50: > 16000 nM
[5]
  AUC: 0.988
  IC50: > 10200 nM
[2]
  AUC: 0.563
  IC50: 461 nM
[6]
  AUC: 0.764
  IC50: 87.9 nM
[7]
  AUC: 0.428
  IC50: 41.2 nM
[8]
  AUC: 0.944
  IC50: > 20000 nM
[9]
  AUC: 0.986
  IC50: > 20000 nM

## SK-LU-1 (lung adenocarcinoma, adherent)
[1]; [11]
  AUC: 0.98
  IC50: > 1020 nM
[1]; [10]
  AUC: 0.938
  IC50: > 10000 nM
[4]
  AUC: 0.904
  IC50: > 16000 nM
[5]
  AUC: 0.98
  IC50: > 10200 nM
[2]
  AUC: 0.607
  IC50: 668 nM
[6]
  AUC: 0.463
  IC50: 12.3 nM
[7]
  AUC: 0.097
  IC50: < 4 nM
[8]
  AUC: 0.971
  IC50: > 20000 nM
[9]
  AUC: 0.955
  IC50: > 20000 nM

## SK-MEL-28 (melanoma, adherent)
[1]; [11]
  AUC: 0.983
  IC50: > 1020 nM
[1]; [10]
  AUC: 0.977
  IC50: > 10000 nM
[4]
  AUC: 0.985
  IC50: > 16000 nM
[5]
  AUC: 0.978
  IC50: > 10200 nM
[2]
  AUC: 0.681
  IC50: 992 nM
[6]
  AUC: 0.941
  IC50: > 256 nM
[7]
  AUC: 0.987
  IC50: > 1020 nM
[8]
  AUC: 0.965
  IC50: > 20000 nM
[9]
  AUC: 0.973
  IC50: > 20000 nM

## SK-MES-1 (lung squamous cell carcinoma, adherent)
[1]; [11]
  AUC: 0.984
  IC50: > 1020 nM
[1]; [10]
  AUC: 0.954
  IC50: > 10000 nM
[4]
  AUC: 0.938
  IC50: > 16000 nM
[5]
  AUC: 0.985
  IC50: > 10200 nM
[2]
  AUC: 0.681
[6]
  AUC: 0.415
  IC50: 9.17 nM
[7]
  AUC: 0.132
  IC50: < 4 nM
[8]
  AUC: 0.893
  IC50: > 20000 nM
[9]
  AUC: 0.981
  IC50: > 20000 nM

## SKN-3 (head and neck, adherent)
[1]; [11]
  AUC: 0.983
  IC50: > 1020 nM
[1]; [10]
  AUC: 0.981
  IC50: > 10000 nM
[4]
  AUC: 0.973
  IC50: > 16000 nM
[5]
  AUC: 0.971
  IC50: > 10200 nM
[2]
  AUC: 0.546
  IC50: 427 nM
[6]
  AUC: 0.892
  IC50: > 256 nM
[7]
  AUC: 0.964
  IC50: > 1020 nM
[8]
  AUC: 0.938
  IC50: > 20000 nM
[9]
  AUC: 0.922
  IC50: > 20000 nM

## SN12C (kidney, adherent)
[1]; [11]
  AUC: 0.984
  IC50: > 1020 nM
[1]; [10]
  AUC: 0.978
  IC50: > 10000 nM
[4]
  AUC: 0.959
  IC50: > 16000 nM
[5]
  AUC: 0.967
  IC50: > 10200 nM
[2]
  AUC: 0.656
  IC50: 897 nM
[6]
  AUC: 0.675
  IC50: 52.5 nM
[7]
  AUC: 0.787
  IC50: 505 nM
[8]
  AUC: 0.861
  IC50: > 20000 nM
[9]
  AUC: 0.961
  IC50: > 20000 nM

## SNU-423 (liver, adherent)
[1]; [11]
  AUC: 0.983
  IC50: > 1020 nM
[1]; [10]
  AUC: 0.956
  IC50: > 10000 nM
[4]
  AUC: 0.969
  IC50: > 16000 nM
[5]
  AUC: 0.95
  IC50: > 10200 nM
[2]
  AUC: 0.53
  IC50: 383 nM
[6]
  AUC: 0.434
  IC50: 10.3 nM
[7]
  AUC: 0.463
  IC50: 49.8 nM
[8]
  AUC: 0.917
  IC50: > 20000 nM
[9]
  AUC: 0.911
  IC50: > 20000 nM

## SW156 (kidney, adherent)
[1]; [11]
  AUC: 0.984
  IC50: > 1020 nM
[1]; [10]
  AUC: 0.976
  IC50: > 10000 nM
[4]
  AUC: 0.982
  IC50: > 16000 nM
[5]
  AUC: 0.986
  IC50: > 10200 nM
[2]
  AUC: 0.514
  IC50: 344 nM
[6]
  AUC: 0.922
  IC50: > 256 nM
[7]
  AUC: 0.344
  IC50: 22.4 nM
[8]
  AUC: 0.919
  IC50: > 20000 nM
[9]
  AUC: 0.972
  IC50: > 20000 nM
